Experimental data reported in US10358436B2, “Kinase inhibitors and method of treating cancer” (University Health Network, priority 2010, dated 2019).

Tests used:
Assay in all cases: cells
[1] = test system: MDA-MB-468 basal breast cancer cell line; details: Homo sapiens, MDA-MB-468, 120 h
[2] = test system: SW620 colon cancer cell line; details: Homo sapiens, SW-620, 120 h, read-out: Cell Line GI50 Range SW-620
[3] = test system: human mammary epithelial primary cells (HMEC); details: 120 h, read-out: Cell Line GI50 Range HMEC
[4] = test system: HCC1954 basal breast cancer cell line; details: Homo sapiens, HCC1954, 120 h
[5] = test system: MCF-7 luminal breast cancer cell line; details: Homo sapiens, MCF7, 120 h
[6] = test system: A549 lung cancer cell line; details: Homo sapiens, A549, 120 h, read-out: Cell Line GI50 Range A-549
[7] = read-out: Cell Line GI50 Range MDA-MB-468, MDA-MB-468 basal breast cancer cell line, SRB assay, 5 days
[8] = read-out: Cell Line GI50 Range HCC-1954, HCC1954 basal breast cancer cell line, SRB assay, 5 days
[9] = read-out: Cell Line GI50 Range MCF-7
[10] = read-out: Cell Line GI50 Range MDA-MB-468
[11] = read-out: Cell Line GI50 Range HCC-1954

GI50 [2] [nM]	GI50 [6] [nM]	GI50 [1, 10] [nM]	GI50 ([5]; read-out: Cell Line GI50 Range MCF-7, MCF-7 luminal breast cancer cell line, SRB assay, 5 days) [nM]	GI50 [4, 11] [nM]	SMILES	GI50 [1, 7] [nM]	GI50 [3] [nM]	GI50 [4, 8] [nM]	GI50 [5, 9] [nM]
< 100	< 100	< 100	100 to 1000	–	COc1ccc2c(c1)[C@]1(C[C@H]1c1ccc3c(/C=C/c4cccc(CN5CCOCC5)c4)n[nH]c3c1)C(=O)N2 [Example A132, (1R,2S)-5′-methoxy-2-(3-(3-(morpholinomethyl)styryl)-1H-indazol-6-yl)spiro[cyclopropane-1,3′-indolin]-2′-one 2,2,2-trifluoroacetate]	–	> 10000	1000 to 10000	–
< 100	< 100	< 100	–	100 to 1000	COc1ccc2c(c1)[C@]1(C[C@H]1c1ccc3c(/C=C/c4ccc(N5CCN(C)CC5)cc4)n[nH]c3c1)C(=O)N2 [Example A175, (1R,2S)-(E)-5′-methoxy-2-(3-(4-(4-methylpiperazin-1-yl)styryl)-1H-indazol-6-yl)spiro[cyclopropane-1,3′-indolin]-2′-one 2,2,2-trifluoroacetate]	–	1000 to 10000	–	100 to 1000
100 to 1000	< 100	< 100	–	> 10000	COc1ccc2c(c1)[C@]1(C[C@H]1c1ccc3c(/C=C/c4ccc(OCCN5CCOCC5)cc4)n[nH]c3c1)C(=O)N2 [Example A194, (1R,2S)-(E)-5′-methoxy-2-(3-(4-(2-morpholinoethoxy)styryl)-1H-indazol-6-yl)spiro[cyclopropane-1,3′-indolin]-2′-one 2,2,2-trifluoroacetate]	–	> 10000	–	< 100

SMILES	GI50 [2] [nM]	GI50 [6] [nM]	GI50 [1, 10] [nM]	GI50 ([5]; read-out: Cell Line GI50 Range MCF-7, MCF-7 luminal breast cancer cell line, SRB assay, 5 days) [nM]	GI50 [4, 11] [nM]	GI50 [1, 7] [nM]	GI50 [3] [nM]	GI50 [4, 8] [nM]	GI50 [5, 9] [nM]
CCN1CCN(c2ccc(-c3n[nH]c4cc([C@@H]5C[C@@]56C(=O)Nc5ccc(OC)cc56)ccc34)cc2)CC1 [Example A99, (1R,2S)-2-(3-(4-(4-ethylpiperazin-1-yl)phenyl)-1H-indazol-6-yl)-5′-methoxyspiro[cyclopropane-1,3′-indolin]-2′-one 2,2,2-trifluoroacetate]	< 100	< 100	–	–	–	< 100	> 10000	100 to 1000	< 100
COc1ccc2c(c1)[C@]1(C[C@H]1c1ccc3c(-c4ccc(N5CCN(CCO)CC5)cc4)n[nH]c3c1)C(=O)N2 [Example A191, (1R,2S)-2-(3-(4-(4-(2-hydroxyethyl)piperazin-1-yl)phenyl)-1H-indazol-6-yl)-5′-methoxyspiro[cyclopropane-1,3′-indolin]-2′-one 2,2,2-trifluoroacetate]	100 to 1000	< 100	–	–	–	< 100	> 10000	1000 to 10000	1000 to 10000

Where two headings read alike, the source gives them in different places.
